Results published in the supplement of paper PMC3334620.
In all, about 33,000 sequences were measured (“E-score (-0.5 to 0.5)”: median about -0.012, highest 2% from about 0.29 on). This is one part of the list.

molecular target: T1, Ybr033w (UniProt P38073); assay: PBM E-score (8-mer binding enrichment) (E-score (-0.5 to 0.5)); higher = stronger / more preferred TF binding; most listed sequences are background and not binding sites; settings: protein concentration: 200 nM; construct: GST-full length
T1 sequence: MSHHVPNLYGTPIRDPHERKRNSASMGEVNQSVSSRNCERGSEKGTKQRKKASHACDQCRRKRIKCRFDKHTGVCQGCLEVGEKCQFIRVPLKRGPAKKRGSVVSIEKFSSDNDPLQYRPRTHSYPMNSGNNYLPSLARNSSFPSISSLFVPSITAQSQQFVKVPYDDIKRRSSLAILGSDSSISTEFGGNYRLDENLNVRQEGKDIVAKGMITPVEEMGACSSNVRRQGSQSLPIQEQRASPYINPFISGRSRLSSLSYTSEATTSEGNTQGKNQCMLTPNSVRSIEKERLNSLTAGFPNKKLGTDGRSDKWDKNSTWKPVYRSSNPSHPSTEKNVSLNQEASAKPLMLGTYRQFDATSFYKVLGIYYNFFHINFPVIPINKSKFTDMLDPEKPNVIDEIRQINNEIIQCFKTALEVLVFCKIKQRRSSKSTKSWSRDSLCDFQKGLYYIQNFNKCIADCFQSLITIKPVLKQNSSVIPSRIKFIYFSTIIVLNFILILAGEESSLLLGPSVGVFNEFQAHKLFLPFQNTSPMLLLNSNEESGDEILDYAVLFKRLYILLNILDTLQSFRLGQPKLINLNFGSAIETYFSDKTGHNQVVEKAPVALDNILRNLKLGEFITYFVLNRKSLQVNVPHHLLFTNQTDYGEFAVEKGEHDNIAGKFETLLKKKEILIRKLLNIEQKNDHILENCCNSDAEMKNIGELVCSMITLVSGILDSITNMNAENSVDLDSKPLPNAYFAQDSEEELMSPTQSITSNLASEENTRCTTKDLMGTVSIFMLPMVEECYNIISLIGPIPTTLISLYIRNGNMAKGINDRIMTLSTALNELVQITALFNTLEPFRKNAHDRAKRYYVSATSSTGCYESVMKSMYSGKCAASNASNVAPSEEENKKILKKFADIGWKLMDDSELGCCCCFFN
Description: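 Universal 'all 10-mer' protein binding microarrays (Agilent AMADID 015681) probed with GST-tagged S. cerevisiae TFs (full-length or DBD) made by in vitro transcription/translation (PURExpress), about 100-200 nM. Bound TF was detected with fluorescent anti-GST. Each ungapped 8-mer (which stands for itself and its reverse complement) is scored by the PBM enrichment score (E-score), a modified Wilcoxon-Mann-Whitney statistic from -0.5 to +0.5, computed with the Universal PBM Analysis Suite. Scale: above 0.35 generally sequence-specific binding.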

Sequence	PBM E-score
ACGCAGCG	-0.207
CAGCCCGA	-0.0945
GAGCAGCC	-0.319
GTATGTCA	0.191
AGCCGTAA	0.0522
GCGCACCA	0.104
CCTGCTAA	-0.127
TCTAAACA	0.0786
AGCGGTGA	-0.159
AGTAATAA	0.18
ACTAAGAG	-0.148
CGCATGCA	-0.0641
AGGCCGTA	0.0121
GAAATGCC	0.0374
AGAAAGAC	-0.0153
CAGAACAG	0.104
GATTTCGA	-0.0493
CCCGGGAG	-0.0399
AATAGTGC	0.123
CAGTACAC	0.0183
CTACATCC	-0.0766
CATAAGTC	-0.0198
CCCCAACC	-0.145
GGACGTCC	-0.0997
TCCCTGCA	-0.00716

Sequence	PBM E-score
GACGTGCC	-0.225
GTTGAGAA	0.145
ATTAACGG	0.159
ATGGCCTA	-0.0527
AGGGGGTC	-0.351
GACCAATC	-0.0934
GTGTCAGA	0.0247
ACTGCTCT	-0.0433
GTACTGCA	-0.0582
AACTCGTC	0.122
ACTTCTCG	0.153
AAGACTGT	-0.21
AAGTTGAG	0.0874
GGATTCGA	-0.0863
ACGAAACC	0.0619
CAGGTCGA	0.141
GCACCGAA	0.0459
AATTCGAG	0.0369
AGAAAAAA	0.207
ATCCTTGG	0.117
CCATTTAA	0.226
CACTCAGC	-0.0478
AAAGCGAA	0.0358
ATCCATTC	0.143
CAGGGTTC	-0.231

Sequence	PBM E-score
CATTGGGG	-0.146
AGTCTAGG	-0.126
AGGGGCAA	-0.304
AGTGTTGA	0.197
AAGTGATG	0.0148
TATTTAAA	0.301
GTAAGACA	0.0549
AGTTCCAA	0.0213
AATTGCAC	-0.0897
CGTACTGC	-0.151
GGTATTAC	0.132
GGGACCGA	-0.148
AAACAAGG	-0.0653
AATACCCA	0.104
CAGTACCG	-0.274
TAAGCAAA	0.179
GTTTGAGA	0.034
GCAACGGA	0.0218
CTGTCTAC	0.0329
GACGTTTA	-0.0502
GAAAAATC	0.381
AGGATGTA	0.0979
ACTGGCCG	-0.321
CGTAGAAC	-0.059
ATAGAAGC	0.12

Sequence	PBM E-score
ACAATCTC	0.0789
AACTCACC	-0.0571
AGCGGTAG	-0.212
CAGGGGGC	-0.357
GCCCGCGA	-0.233
ACCTGTAT	-0.065
AAAATCGG	-0.0385
GTCCTGGA	-0.196
GACGATGA	-0.00274
CCGCGTTC	0.0353
CGCGATGC	-0.29
AGTTCCCA	-0.0242
ACAGGTGA	0.0969
AGGGTCCG	-0.273
CATATCGG	0.0616
CTTCTCCA	-0.214
CAAATATA	0.281
TGTGTCAA	0.0461
CAGGACGC	-0.122
ACCTTCCG	-0.032
AAATGCCC	-0.147
ACGATTTG	0.151
CTATTAGC	0.133
AACTGGGT	-0.00618
CTGGCTTA	-0.15

Sequence	PBM E-score
GGTTCGCA	-0.181
AATTTTAA	0.285
ATTAAATG	0.347
GCGGTGCA	-0.0907
ATAGCCAA	0.17
AATGAGTA	0.268
GGTAAAGA	0.168
CTGTACCC	-0.135
CGTCTGAA	-0.0988
GGATGGAA	-0.0537
AATGGCCT	-0.0295
AGGAGCCT	-0.342
CACTGGAG	-0.14
ACAGCGTC	-0.0704
ATCAGCAG	0.0244
CGGACGCC	-0.258
GCTTGGGA	-0.232
ACATCCGG	0.0515
ACACTCCC	-0.0919
CATTTTCA	0.0453
GGTCCGTA	-0.0488
CAGGAATA	0.219
ATTTAATC	0.352
TTCCGAAA	0.196
CCAAGTTA	0.19

Sequence	PBM E-score
TAAGTACA	0.186
ATCATAAA	0.174
GGGTCCAA	-0.0689
GGAATAAA	0.296
CGGACCTA	-0.031
ATAGACTC	-0.157
CAACCTTA	0.14
CAGACTAC	-0.0744
CTTAATTA	0.171
CAAGCCAA	0.0607
GAGTAGCA	0.104
ACATACGA	0.168
ATGTTTGC	-0.109
TCGTTCCA	-0.126
ATTAAAGA	0.327
ACATCGTA	-0.034
AGTACTGG	-0.185
GTGATGGA	-0.0759
TCCGTGCA	0.0759
TAGTCCAA	-0.0773
AGGCCTGG	-0.29
ACACAGCG	0.0265
CGTTCCAC	-0.18
ACAGCACG	-0.0318
CGCGTCGA	-0.0154

Sequence	PBM E-score
AAAGGCAC	-0.0183
ACTACTCA	0.148
ACGTACGT	-0.0529
CGGCCTAG	-0.193
CTAAAACC	0.0239
ACCGAGCG	-0.0137
ATCATTTC	0.258
ATACAACG	0.239
AGTACAAG	0.0813
AACACCAA	0.0475
CGTTTGTC	-0.0371
GATTGCCC	-0.214
ACTGCTTC	-0.204
CTAACCAC	-0.00459
AGGACTAG	-0.0235
GATGCACC	-0.0771
GGTCGGTA	-0.287
AGACTGAT	-0.0978
CACTCTGC	-0.0578
CGGGGGCC	-0.414
GTCCGTGA	-0.163
CGTCAAGC	-0.112
